Structures are written as SMILES. Screen size: about 110,000 compounds; about 230 (0.21%) showed an effect of 50% or more. The list shows a part of the results.
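Also: 30 min substrate incubation versus DMSO and 10 µM JCP410 controls.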

DPAP1, sequence (Q8IIJ9 whole entry, looked up): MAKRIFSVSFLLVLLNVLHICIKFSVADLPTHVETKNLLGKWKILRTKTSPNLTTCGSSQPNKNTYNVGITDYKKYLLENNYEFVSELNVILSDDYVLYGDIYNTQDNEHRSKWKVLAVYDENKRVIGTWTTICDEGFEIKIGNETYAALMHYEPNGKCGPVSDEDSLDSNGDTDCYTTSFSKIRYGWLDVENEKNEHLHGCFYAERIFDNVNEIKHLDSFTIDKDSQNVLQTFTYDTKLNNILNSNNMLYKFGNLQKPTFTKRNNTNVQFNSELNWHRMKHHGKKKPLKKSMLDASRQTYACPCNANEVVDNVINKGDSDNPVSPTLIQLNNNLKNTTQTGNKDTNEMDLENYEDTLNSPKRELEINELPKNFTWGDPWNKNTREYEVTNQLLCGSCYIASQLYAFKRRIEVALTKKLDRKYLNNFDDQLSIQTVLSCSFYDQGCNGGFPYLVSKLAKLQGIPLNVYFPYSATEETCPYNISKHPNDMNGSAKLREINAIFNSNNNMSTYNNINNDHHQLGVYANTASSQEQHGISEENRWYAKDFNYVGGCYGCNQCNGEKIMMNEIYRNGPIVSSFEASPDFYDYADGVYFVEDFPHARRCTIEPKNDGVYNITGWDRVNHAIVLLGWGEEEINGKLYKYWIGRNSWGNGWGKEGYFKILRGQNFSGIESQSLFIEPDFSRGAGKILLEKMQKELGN

The experiment addresses DPAP1 (Plasmodium falciparum, UniProt Q8IIJ9). Put plainly: primary screen, percent inhibition; read by cleavage of a fluorogenic dipeptide substrate; higher = more effect of the substance. More on the design: species or system P. falciparum D10 trophozoite lysates; single well.
As to `O=C(NCc1ccc2c(c1)OCO2)c1ccc(F)cc1`, the “% Inhibition @ 10 uM” value was 0.35%.
Take `Cc1nc2nc(N3C(=O)c4ccc(C(=O)O)cc4C3=O)nn2c(C)c1Cl`: the “% Inhibition @ 10 uM” value stood at 5.2%.
As to `Fc1ccc(N2N=C(c3cccs3)CC2c2ccccc2)cc1` (stereo not shown), the “% Inhibition @ 10 uM” value was determined as 4.98%.
`CCn1cc(CCC(=O)NCCC2=CCCCC2)c2ccccc21`: the “% Inhibition @ 10 uM” value is -1.43%.
Regarding `CC1=NC(C)=C(C#N)C(C(F)(F)F)(C(F)(F)F)N1`, the “% Inhibition @ 10 uM” value is reported as 1.91%.
`COC(=O)C1=C(C)N(C(C)C)C(=O)/C1=C\c1cc(C)n(-c2ccccc2)c1C`: the “% Inhibition @ 10 uM” value is reported as -1.26%.
As to `Cc1nc(-n2cccc2)sc1C(=O)NCC(C)c1ccccc1` (stereo not shown), the “% Inhibition @ 10 uM” value was -0.637%.
For the compound `N#CCNC(=O)[C@H](CC1CCCCC1)NC(=O)c1ccc(O)c([N+](=O)[O-])c1`, the “% Inhibition @ 10 uM” value is 2.86%.
Take `O=c1c(CN2CCN(c3cccc(Cl)c3)CC2)coc2ccccc12`: the “% Inhibition @ 10 uM” value is 0.847%.
For `CC1CCC(NCCN2CCOCC2)C1` (stereo not shown), the “% Inhibition @ 10 uM” value stood at 3.15%.
The result for `Cc1ccc(N2C(=O)CC(N3CCN(Cc4ccccc4)CC3)C2=O)c(Cl)c1` (stereo not shown) reads -4.15%; that for `CCOc1cccc(C(=O)Nc2nnc(-c3ccco3)s2)c1`, -5.7%; that for `CC1=C(C(=O)Nc2ccccn2)C(c2sccc2C)C2=C(O)CCCC2=N1` (stereo not shown), -4.67%.
The result for `Cc1cc(-c2ccc(C)c(S(=O)(=O)N3CCN(c4ccccn4)CC3)c2)on1` reads 0.879%.
`N#C/C(=C\C=C\c1ccccc1)c1nc(-c2ccccc2)cs1`: the “% Inhibition @ 10 uM” value is recorded as -7.56%.
The value for `Cc1ccccc1C(=O)NC(C)c1ccc2c(c1)OCO2` (stereo not shown) was 3.04%; that for `COc1ccc(CCNC(=O)CCn2cccn2)cc1OC` was -1.74%; that for `Cc1nnc2ccc(N3CCC4(CC3)OCCO4)nn12` was 7.15%.
Regarding `CC1=C(C(=O)OCc2ccccc2)C(c2cccc(Cl)c2Cl)C2=C(O)CC(C)(C)CC2=N1` (stereo not shown), the “% Inhibition @ 10 uM” value came out at 0.162%.
With `N#Cc1c(NC(=O)c2ccccc2C(=O)O)sc2c1CCC2`, the “% Inhibition @ 10 uM” value is given as 2.67%.
The value for `CC1(C)c2ccccc2CN2C(=O)OC3(C)CCC1C23C` (stereo not shown) was 2.01%; that for `Cc1ccccc1Cn1c(SCc2ccc(C(=O)O)cc2)nc2ccncc21` was -3.34%.
Consider `COc1cc(C2NC(C(=O)O)CS2)ccc1OCc1ccccc1Cl` (stereo not shown), for which the “% Inhibition @ 10 uM” value is -2.67%.
The value for `COc1cc(OC)cc(-c2nc3n(n2)C(c2ccc(Cl)cc2)C(C(N)=O)=C(C)N3)c1` (stereo not shown) was 5.17%; that for `COC(=O)C1=CN(C)C=C(C(=O)OC)C1c1cccc(Br)c1` was 3.45%.
`CCOc1ccc(N(Cc2cc3cccc(C)c3nc2O)C(C)=O)cc1`: the “% Inhibition @ 10 uM” value was determined as 0.727%.
As to `Cc1ccc2c(c1)C(C)(C)C1(/C=C/c3cccnc3)NC(=O)CN21` (stereo not shown), the “% Inhibition @ 10 uM” value is -0.641%.
`Cc1cccc(CC(=O)Nc2c(C(=O)N3CCN(c4ncccn4)CC3)oc3ccccc23)c1`: the “% Inhibition @ 10 uM” value is -7.36%.

Source of the values: article PMC6919601, “Identification of Plasmodium dipeptidyl aminopeptidase allosteric inhibitors by high throughput screening” (PLoS ONE, 2019).
